Reference: article PMC6212790
Some of the results follow. At the low end of the ranking, values are background and their order means little.

target: T1, GST-Rok (full length) (UniProt O34857); assay: protein binding microarray; conditions: Rok is a gene silencer of Bacillus subtilis; high values mean tight binding; most listed sequences are background and not binding sites; double strand, one strand shown;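 further: rank score from −0.5 (least bound) to 0.5 (best bound)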
T1 sequence: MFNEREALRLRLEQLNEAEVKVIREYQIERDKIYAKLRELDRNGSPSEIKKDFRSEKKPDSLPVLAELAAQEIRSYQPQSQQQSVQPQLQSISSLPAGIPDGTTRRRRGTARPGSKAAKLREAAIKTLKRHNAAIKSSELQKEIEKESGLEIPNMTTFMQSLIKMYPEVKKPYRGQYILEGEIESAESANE

Sequence | binding signal
CCATAGAC | -0.134 E-score
CCGTGGCG | -0.194 E-score
AATACATT | 0.252 E-score
TACTTTGA | 0.0956 E-score
AGTAAGGC | -0.059 E-score
GGCATCGA | 0.0234 E-score
TCATCACA | 0.0709 E-score
AGTTAGTA | 0.319 E-score
GTCTGCGA | -0.167 E-score
GCCCACAA | -0.109 E-score
GACGATAC | 0.0632 E-score
CTTAACGA | -0.152 E-score
ATGATTCG | -0.144 E-score
CACGTGTA | 0.175 E-score
CTAAGCCA | 0.0287 E-score
AGCTTAAT | 0.023 E-score
CTTATATA | 0.253 E-score
AGCATTAT | 0.255 E-score
ACACGCCG | -0.287 E-score
TAGAGCCA | -0.123 E-score
AAGAATAA | 0.183 E-score
ATGGACTA | 0.0575 E-score
CGTTTGAC | -0.0575 E-score
AATACCTG | 0.141 E-score
CGTTATCA | 0.2 E-score

Sequence | binding signal
GGTTTATA | 0.0906 E-score
GCCCGTCC | -0.248 E-score
ACGATCAT | 0.0955 E-score
CGGACATA | 0.0669 E-score
ACCCATCT | 0.119 E-score
TCACGTGA | -0.0446 E-score
ATCGGTAC | 0.22 E-score
GCGCTGCC | -0.359 E-score
CCCCCGAC | -0.445 E-score
CTTTACCA | 0.136 E-score
ATAGGGGG | -0.22 E-score
GGGGTGAC | -0.307 E-score
ATAGCACC | -0.0446 E-score
AACAACGT | 0.182 E-score
CTGATGGA | -0.079 E-score
CGCGTGAA | -0.038 E-score
TAACAGGA | 0.0364 E-score
AACTACTC | 0.381 E-score
ATCGCCAT | 0.0173 E-score
AATCTACA | 0.326 E-score
ACTTATAT | 0.332 E-score
CAGTGTCG | -0.122 E-score
GCGGGTCC | -0.0666 E-score
ATTGAGAC | -0.0929 E-score
AGTTTTTC | 0.0143 E-score

Sequence | binding signal
CTTATCTA | 0.229 E-score
ACTACTTG | 0.192 E-score
CCTTGAAC | -0.296 E-score
GGAGCTGA | -0.309 E-score
AGCAAACC | 0.0585 E-score
ACAGGGTC | -0.24 E-score
GCGGCTGA | -0.213 E-score
GACTATCC | -0.0656 E-score
CGGGGGCC | -0.422 E-score
ACGTGTTC | -0.18 E-score
CTTTCATC | -0.031 E-score
GACCCGTA | -0.256 E-score
ATTGTGCA | 0.108 E-score
CATTAGCC | -0.265 E-score
CCTTCACG | -0.126 E-score
CCAATCAG | 0.0268 E-score
AGGCCGAA | -0.136 E-score
GCGTTAAC | 0.0258 E-score
CGAGGCCG | -0.392 E-score
GCACGTGC | -0.141 E-score
CGGTCTGC | -0.131 E-score
CATTGGTA | 0.223 E-score
CCTCGTCG | -0.205 E-score
ATGGATTC | 0.0719 E-score
GGCTTACC | -0.233 E-score

Sequence | binding signal
ACCTTCAC | -0.0752 E-score
ATATATTC | 0.34 E-score
CAGATTGC | -0.179 E-score
ACCTGAAC | -0.0846 E-score
GTCAGAGA | -0.298 E-score
ACCGCCAA | -0.241 E-score
TGTCCACA | 0.00731 E-score
CCTATGAA | -0.0665 E-score
GTGGACTA | 0.133 E-score
GCAACTAC | 0.308 E-score
ACGCTAGA | 0.14 E-score
TTACCGAA | 0.237 E-score
TGATGACA | 0.0582 E-score
GATTTAGA | -0.0821 E-score
TCCTACAA | 0.0302 E-score
CTACTAAC | 0.324 E-score
CTACAATA | 0.291 E-score
TAAAGGGA | -0.0821 E-score
GGTTTCAA | -0.0891 E-score
CCCTCGAC | -0.306 E-score
AATAACTC | 0.0992 E-score
ACTCGTAC | 0.0428 E-score
CCCCGCAG | -0.342 E-score
AACCAGTT | -0.0802 E-score
CAGGTAGA | 0.221 E-score

Sequence | binding signal
ATTGTACA | 0.369 E-score
AGTGGTTA | 0.134 E-score
GGCCATAC | -0.0505 E-score
AGATCTCG | -0.134 E-score
CGATAACA | 0.116 E-score
AGAGGCGG | -0.231 E-score
GCGAATTA | 0.266 E-score
CAGGTGTC | -0.0418 E-score
CTCGCGTA | 0.0298 E-score
ACCAGATA | 0.209 E-score
ATGGTACC | 0.231 E-score
CGAGGTTC | -0.173 E-score
ATAGAGGC | -0.0438 E-score
CAGTATTA | 0.243 E-score
ATAATTCG | 0.302 E-score
CAGTCAGC | 0.00195 E-score
CCCGCAAG | -0.316 E-score
ATAACCGG | -0.0829 E-score
CATTTGAC | 0.0433 E-score
GCAGCGCA | 0.00939 E-score
ATTATCGC | 0.0259 E-score
CGCACTCC | -0.295 E-score
ACGGCGGA | -0.404 E-score
CGGAGCCA | -0.128 E-score
GACAGGCA | -0.157 E-score

Sequence | binding signal
CCGCTATC | -0.227 E-score
CCTATTGC | -0.228 E-score
ACGTATTG | 0.242 E-score
TATGCCAA | -0.0504 E-score
ATCATTAA | 0.236 E-score
AGCTGGGA | -0.1 E-score
CATACTTA | 0.175 E-score
AATGATTA | 0.164 E-score
CCAGTCCC | -0.277 E-score
CGCGTGAC | -0.118 E-score
AACTATGG | 0.0596 E-score
ACCCTACC | -0.111 E-score
ACTTACTA | 0.306 E-score
ATCCGGCA | -0.0551 E-score
ATCTACGG | 0.158 E-score
CGAGCGAC | -0.0942 E-score
CTTCTATC | 0.265 E-score
GCTTTCAA | -0.14 E-score
CTAACCTA | 0.186 E-score
AACAGAGG | 0.0276 E-score
GCACACGC | -0.16 E-score
CGGAGCCG | -0.191 E-score
GAGCACCA | -0.18 E-score
AAACCTAG | 0.24 E-score
ACACGCGC | -0.0459 E-score

Sequence | binding signal
CTCAACCA | -0.0207 E-score
TAATTCAA | 0.105 E-score
ATGACCCA | -0.145 E-score
GACCGACC | -0.328 E-score
AAAAGATC | 0.168 E-score
ATTACGTC | 0.261 E-score
AAATCGTG | 0.0562 E-score
ACAAGATA | 0.326 E-score
CCGATCGA | -0.0744 E-score
GTGATCGA | -0.135 E-score
ACCCTAAC | -0.292 E-score
TGTACGAA | 0.188 E-score
CGTTTTAC | 0.0746 E-score
ATGGCCGA | -0.0575 E-score
AACCTGCC | -0.267 E-score
AGGCAATA | 0.0511 E-score
CTCGACAG | -0.185 E-score
AAGCACAA | 0.0437 E-score
CCAACGCG | -0.327 E-score
TATACAAA | 0.402 E-score
CATTTAGG | 0.0168 E-score
AACGCCCA | -0.335 E-score
